The values below come from the supplement of paper PMC11741623.

This is one part of the list. Interaction screen of human proteins with wild-type SARS-CoV-2 proteins by split-DHFR complementation in yeast, 1 µg/mL methotrexate. Value = fitness of the pair (three or more lineages) minus that of the viral protein without a human partner, on a scale set by negative (0) and fused positive (1) controls, mean of up to three cultures; higher = more likely to interact. Active = false discovery rate below 0.05 (one-sided t-test) in at least one culture. Nearly all pairs are not hits, and differences among them are mostly noise (correlation between cultures about 0.3); most hits were seen in one culture only. Human sequences are the Swiss-Prot entries looked up by gene name; the clone may be another isoform. NSP2 values were corrected by the authors for a growth advantage. Listed are human proteins with a hit and a random twelfth of the others.

Common to all, as to test: yeast fitness gain over the viral ORF with no human partner (scaled fitness); higher = more likely to interact
One assay concerns the target SARS-CoV-2 M. As for the experimental part: (§1)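 Split mouse DHFR complementation in pooled diploid yeast: human ORFeome clones carry one fragment and viral ORFs the other; barcoded lineages compete in 1 µg/mL methotrexate and fitness is read by barcode sequencing in up to three cultures.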
The target of another assay is SARS-CoV-2 NSP1. The procedure: as §1
Another assay addresses SARS-CoV-2 NSP10. As for the experimental part: as §1
The target of the next assay is SARS-CoV-2 NSP12. As for the experimental part: as §1
The target in a further assay is SARS-CoV-2 NSP13. The procedure:
as §1

The target in another assay is SARS-CoV-2 NSP16. The procedure:
as §1

The next assay deals with SARS-CoV-2 NSP2. As for the experimental part:
as §1

The next assay deals with SARS-CoV-2 NSP7. The procedure: as §1
The next assay has as its target SARS-CoV-2 NSP8. The procedure: as §1
A further assay addresses SARS-CoV-2 NSP9. The procedure:
as §1

The target of a further assay is SARS-CoV-2 ORF10. As for the experimental part: as §1
Another assay deals with SARS-CoV-2 ORF3A. As for the experimental part: as §1
Another assay has as its target SARS-CoV-2 ORF3B. As for the experimental part:
as §1

A further assay addresses SARS-CoV-2 ORF6. As for the experimental part:
as §1

For a further assay, the target named is SARS-CoV-2 ORF7A. As for the experimental part: as §1
The target in another assay is SARS-CoV-2 ORF7B. As for the experimental part: as §1
Another assay deals with SARS-CoV-2 ORF8. As for the experimental part: as §1
A further assay deals with SARS-CoV-2 ORF9B. The procedure: as §1
Assay [1] has as its target SARS-CoV-2 ORF9Bwu (the 73-codon ORF). The procedure:
as §1

In the next assay the target is SARS-CoV-2 NSP14. The procedure:
as §1

The next assay concerns the target SARS-CoV-2 NSP15. The procedure:
as §1

In another assay the target is SARS-CoV-2 NSP5. As for the experimental part: as §1
A further assay concerns the target SARS-CoV-2 NSP6. As for the experimental part: as §1
Another assay has as its target SARS-CoV-2 S. The procedure:
as §1

The target of the next assay is SARS-CoV-2 NSP4. The procedure:
as §1

For another assay, the target named is SARS-CoV-2 N. As for the experimental part: as §1

B1: IGSF8, Q969P0 (protein)
chain: MGALRPTLLPPSLPLLLLLMLGMGCWAREVLVPEGPLYRVAGTAVSISCNVTGYEGPAQQNFEWFLYRPEAPDTALGIVSTKDTQFSYAVFKSRVVAGEVQVQRLQGDAVVLKIARLQAQDAGIYECHTPSTDTRYLGSYSGKVELRVLPDVLQVSAAPPGPRGRQAPTSPPRMTVHEGQELALGCLARTSTQKHTHLAVSFGRSVPEAPVGRSTLQEVVGIRSDLAVEAGAPYAERLAAGELRLGKEGTDRYRMVVGGAQAGDAGTYHCTAAEWIQDPDGSWAQIAEKRAVLAHVDVQTLSSQLAVTVGPGERRIGPGEPLELLCNVSGALPPAGRHAAYSVGWEMAPAGAPGPGRLVAQLDTEGVGSLGPGYEGRHIAMEKVASRTYRLRLEAARPGDAGTYRCLAKAYVRGSGTRLREAASARSRPLPVHVREEGVVLEAVAWLAGGTVYRGETASLLCNISVRGGPPGLRLAASWWVERPEDGELSSVPAQLVGGVGQDGVAELGVRPGGGPVSVELVGPRSHRLRLHSLGPEDEGVYHCAPSAWVQHADYSWYQAGSARSGPVTVYPYMHALDTLFVPLLVGTGVALVTGATVLGTITCCFMKRLRKR
In the case of B1, the yeast fitness gain is inactive: -0.0327 with SARS-CoV-2 M; inactive: -0.128 with SARS-CoV-2 NSP1; inactive: -0.0966 with SARS-CoV-2 NSP10; inactive: -0.0774 with SARS-CoV-2 NSP12; inactive: 0.00563 with SARS-CoV-2 NSP13; inactive: -0.0633 with SARS-CoV-2 NSP16. Also, the yeast fitness gain is inactive: -0.336 with SARS-CoV-2 NSP2; inactive: -0.00793 with SARS-CoV-2 NSP7; inactive: -0.0297 with SARS-CoV-2 NSP8; inactive: 0.104 with SARS-CoV-2 NSP9; inactive: -0.39 with SARS-CoV-2 ORF10; inactive: 0.141 in the assay with SARS-CoV-2 ORF3A. In addition, the yeast fitness gain in the assay with SARS-CoV-2 ORF3B was inactive: -0.0804; in the assay with SARS-CoV-2 ORF6, inactive: -0.00155; in the assay with SARS-CoV-2 ORF7A, inactive: -0.123; with SARS-CoV-2 ORF7B, inactive: -0.0571; in the assay with SARS-CoV-2 ORF8, inactive: -0.189; in the assay with SARS-CoV-2 ORF9B it was inactive: -0.0021. In addition, the yeast fitness gain in assay [1] was inactive: -0.133.

B2: DPEP1, P16444 (protein)
chain: MWSGWWLWPLVAVCTADFFRDEAERIMRDSPVIDGHNDLPWQLLDMFNNRLQDERANLTTLAGTHTNIPKLRAGFVGGQFWSVYTPCDTQNKDAVRRTLEQMDVVHRMCRMYPETFLYVTSSAGIRQAFREGKVASLIGVEGGHSIDSSLGVLRALYQLGMRYLTLTHSCNTPWADNWLVDTGDSEPQSQGLSPFGQRVVKELNRLGVLIDLAHVSVATMKATLQLSRAPVIFSHSSAYSVCASRRNVPDDVLRLVKQTDSLVMVNFYNNYISCTNKANLSQVADHLDHIKEVAGARAVGFGGDFDGVPRVPEGLEDVSKYPDLIAELLRRNWTEAEVKGALADNLLRVFEAVEQASNLTQAPEEEPIPLDQLGGSCRTHYGYSSGASSLHRHWGLLLASLAPLVLCLSLL
On to B2, for which the yeast fitness gain is inactive: 0.0313 in the assay with SARS-CoV-2 M; inactive: -0.0255 with SARS-CoV-2 NSP1; inactive: 0.0238 with SARS-CoV-2 NSP10; inactive: -0.00891 in the assay with SARS-CoV-2 NSP12; inactive: -0.0565 in the assay with SARS-CoV-2 NSP13; inactive: -0.14 in the assay with SARS-CoV-2 NSP14. In addition, the yeast fitness gain with SARS-CoV-2 NSP15 is inactive: 0.0243; with SARS-CoV-2 NSP16, inactive: 0.0192; with SARS-CoV-2 NSP2, inactive: -0.167; in the assay with SARS-CoV-2 NSP5 it was inactive: -0.0566; in the assay with SARS-CoV-2 NSP6, inactive: -0.0433; with SARS-CoV-2 NSP7, inactive: -0.0448. The yeast fitness gain with SARS-CoV-2 NSP8 is inactive: 0.0586; with SARS-CoV-2 NSP9 it was inactive: 0.0388; in the assay with SARS-CoV-2 ORF10 it was inactive: -0.054; in the assay with SARS-CoV-2 ORF3A, inactive: -0.111; with SARS-CoV-2 ORF3B, inactive: 0.0204; with SARS-CoV-2 ORF6, inactive: 0.0506. Moreover, the yeast fitness gain is inactive: -0.0396 with SARS-CoV-2 ORF7A; inactive: 0.0897 in the assay with SARS-CoV-2 ORF7B; inactive: 0.074 in the assay with SARS-CoV-2 ORF8; inactive: -0.0168 with SARS-CoV-2 ORF9B; inactive: -0.0651 in [1]; inactive: 0.0157 with SARS-CoV-2 S.

B3: LBH, Q53QV2 (protein)
chain: MSIYFPIHCPDYLRSAKMTEVMMNTQPMEEIGLSPRKDGLSYQIFPDPSDFDRCCKLKDRLPSIVVEPTEGEVESGELRWPPEEFLVQEDEQDNCEETAKENKEQ
For the molecule B3, the yeast fitness gain with SARS-CoV-2 M is inactive: 0.0394; with SARS-CoV-2 NSP10 it was inactive: 0.0555; in the assay with SARS-CoV-2 NSP12, inactive: 0.00472; with SARS-CoV-2 NSP13 it was inactive: -0.0146; with SARS-CoV-2 NSP14, inactive: -0.416; with SARS-CoV-2 NSP15, inactive: 0.021. The yeast fitness gain was inactive: -0.115 in the assay with SARS-CoV-2 NSP2; inactive: -0.0818 in the assay with SARS-CoV-2 NSP4; inactive: 0.0363 with SARS-CoV-2 NSP5; inactive: -0.0283 with SARS-CoV-2 NSP6; inactive: -0.175 with SARS-CoV-2 NSP7; inactive: -0.054 in the assay with SARS-CoV-2 NSP8. Also, the yeast fitness gain with SARS-CoV-2 NSP9 is inactive: -0.0348; with SARS-CoV-2 ORF10, inactive: 0.00526; in the assay with SARS-CoV-2 ORF3B, inactive: 0.0328; with SARS-CoV-2 ORF6, inactive: -0.0834; in the assay with SARS-CoV-2 ORF7B it was inactive: 0.0274; with SARS-CoV-2 ORF8 it was inactive: 0.0224. Besides, the yeast fitness gain with SARS-CoV-2 ORF9B is inactive: 0.0283; in assay [1], inactive: -0.121; with SARS-CoV-2 S it was inactive: -0.171.

B4: C18orf56, Q8TAI1 (protein)
chain: MTPASGATASLGRLRARPRSRWDAAYLPAVAAVCVARASHVPNGTLRFGVCKARRTMRPLPRRIEVRTKRGPQRPAAPERSPQPRLPPSRHPSRRGPRRHLSGCSAPACRIPTGCRCPCGRPS
As for B4, the yeast fitness gain in the assay with SARS-CoV-2 M is inactive: -0.0137; with SARS-CoV-2 N, inactive: 0.0346; in the assay with SARS-CoV-2 NSP1, inactive: -0.0426; with SARS-CoV-2 NSP10 it was inactive: -0.0557; with SARS-CoV-2 NSP12 it was inactive: -0.0762; with SARS-CoV-2 NSP13, inactive: -0.107. In addition, the yeast fitness gain with SARS-CoV-2 NSP16 is inactive: 0.0747; with SARS-CoV-2 NSP2 it was inactive: -0.203; with SARS-CoV-2 NSP5 it was inactive: -0.0646; with SARS-CoV-2 NSP6 it was inactive: -0.053; with SARS-CoV-2 NSP7 it was inactive: 0.00295; with SARS-CoV-2 NSP8, inactive: 0.0472. Also, the yeast fitness gain with SARS-CoV-2 NSP9 is inactive: -0.16; in the assay with SARS-CoV-2 ORF10, inactive: 0.114; in the assay with SARS-CoV-2 ORF3A it was inactive: -0.011; with SARS-CoV-2 ORF3B it was inactive: 0.0417; with SARS-CoV-2 ORF6, inactive: -0.154; with SARS-CoV-2 ORF7A, inactive: 0.0894. The yeast fitness gain was inactive: -0.0049 with SARS-CoV-2 ORF7B; inactive: -0.0152 in the assay with SARS-CoV-2 ORF8; inactive: 0.0722 with SARS-CoV-2 ORF9B; inactive: 0.0565 in assay [1]; inactive: -0.0402 with SARS-CoV-2 S.

B5: FKBP3, Q00688 (protein)
chain: MAAAVPQRAWTVEQLRSEQLPKKDIIKFLQEHGSDSFLAEHKLLGNIKNVAKTANKDHLVTAYNHLFETKRFKGTESISKVSEQVKNVKLNEDKPKETKSEETLDEGPPKYTKSVLKKGDKTNFPKKGDVVHCWYTGTLQDGTVFDTNIQTSAKKKKNAKPLSFKVGVGKVIRGWDEALLTMSKGEKARLEIEPEWAYGKKGQPDAKIPPNAKLTFEVELVDID
As to B5, the yeast fitness gain with SARS-CoV-2 M was inactive: 0.0332; in the assay with SARS-CoV-2 NSP1, inactive: -0.137; with SARS-CoV-2 NSP10, inactive: 0.0185; with SARS-CoV-2 NSP12 it was inactive: 0.0772; with SARS-CoV-2 NSP13 it was inactive: -0.000409; in the assay with SARS-CoV-2 NSP14, inactive: -0.192. For the same molecule, the yeast fitness gain is inactive: 0.0664 with SARS-CoV-2 NSP15; active: 0.277 in the assay with SARS-CoV-2 NSP2; inactive: 0.292 with SARS-CoV-2 NSP4; inactive: -0.0423 in the assay with SARS-CoV-2 NSP5; inactive: -0.25 with SARS-CoV-2 NSP6; inactive: -0.0545 with SARS-CoV-2 NSP7. The yeast fitness gain with SARS-CoV-2 NSP8 was inactive: 0.017; in the assay with SARS-CoV-2 NSP9, inactive: 0.165; in the assay with SARS-CoV-2 ORF10 it was inactive: -0.00368; with SARS-CoV-2 ORF3A, inactive: 0.0708; with SARS-CoV-2 ORF3B, inactive: 0.00162; with SARS-CoV-2 ORF6 it was inactive: 0.00366. The yeast fitness gain is inactive: -0.0938 with SARS-CoV-2 ORF7A; inactive: 0.0433 with SARS-CoV-2 ORF7B; inactive: 0.069 in the assay with SARS-CoV-2 ORF8; inactive: -0.0305 in the assay with SARS-CoV-2 ORF9B; inactive: 0.0807 in assay [1]; inactive: 0.148 with SARS-CoV-2 S.
